Data on 195 variants can be found in a collection of fitness landscapes (doi:10.1126/science.1257360).

The chains are these.
B1: PhoQ; a variant is named by its letters at X, in order, P23837 (parent)
chain: MKKLLRLFFPLSLRVRFLLATAAVVLVLSLAYGMVALIGYSVSFDKTTFRLLRGESNLFYTLAKWENNKLHVELPENIDKQSPTMTLIYDENGQLLWAQRDVPWLMKMIQPDWLKSNGFHEIEADVNDTSLLLSGDHSIQQQLQEVREDDDDAEMTHSVAVNVYPATSRMPKLTIVVVDTIPVELKSSYMVWSWFIYVLSANLLLVIPLLWVAAWWSLRPIEALAKEVRELEEHNRELLNPATTRELTSLVRNLNRLLKSERERYDKYRTTLTDLTHSLKTPLXXLQXXLRSLRSEKMSVSDAEPVMLEQISRISQQIGYYLHRASMRGGTLLSRELHPVAPLLDNLTSALNKVYQRKGVNISLDISPEISFVGEQNDFVEVMGNVLDNACKYCLEFVEISARQTDEHLYIVVEDDGPGIPLSKREVIFDRGQRVDTLRPGQGVGLAVAREITEQYEGKIVAGESMLGGARMEVIFGRQHSAPKDE

The other results are listed elsewhere or left out.

This assay covers variants of B1. Description: enrichment ratio after two sorts for PhoP signalling (ratio (wild type AVST 3.29)); higher = more functional. Particulars: with PhoP (E. coli).
Turning to MFSA, the enrichment ratio is no more than 0.25.

Regarding GFGG, the enrichment ratio is no more than 0.25.

For the variant MQRY, the enrichment ratio was no more than 0.25.

As to GLIK, the enrichment ratio was no more than 0.25.

WQGL: the enrichment ratio is no more than 0.25.

As for AWFY, the enrichment ratio was no more than 0.25.

For the variant ADPR, the enrichment ratio was no more than 0.25.

Regarding SEIP, the enrichment ratio was no more than 0.25.

With IQTA, the enrichment ratio is no more than 0.25.

As to IMEY, the enrichment ratio was no more than 0.25.

As to PYTY, the enrichment ratio was no more than 0.25.

Take ANDW: the enrichment ratio is no more than 0.25.

With EEDS, the enrichment ratio was no more than 0.25.

In the case of FQGV, the enrichment ratio is no more than 0.25.

WPLR: the enrichment ratio was no more than 0.25.

Turning to PTGT, the enrichment ratio is no more than 0.25.

Take GNHM: the enrichment ratio was no more than 0.25.

In the case of FTIF, the enrichment ratio is no more than 0.25.

As to DGVQ, the enrichment ratio is no more than 0.25.

Regarding PLFG, the enrichment ratio is no more than 0.25.

For the variant LKDT, the enrichment ratio was no more than 0.25.

Turning to LCYH, the enrichment ratio is no more than 0.25.

As for TFYP, the enrichment ratio is no more than 0.25.

On to QYAC, for which the enrichment ratio was no more than 0.25.

On to GDWR, for which the enrichment ratio was no more than 0.25.

As for VSNP, the enrichment ratio was no more than 0.25.

Turning to KNDA, the enrichment ratio is no more than 0.25.

In the case of PDST, the enrichment ratio was no more than 0.25.

As to YNIK, the enrichment ratio was no more than 0.25.

In the case of MQVG, the enrichment ratio is no more than 0.25.

As for ARFQ, the enrichment ratio is no more than 0.25.

As to GNGC, the enrichment ratio is no more than 0.25.

As for HAMN, the enrichment ratio was no more than 0.25.

Turning to DWTI, the enrichment ratio is no more than 0.25.

On to IYQA, for which the enrichment ratio is no more than 0.25.

For FQWE, the enrichment ratio was found to be 1.71.

For RKPP, the enrichment ratio was no more than 0.25.

For RTHN, the enrichment ratio is no more than 0.25.

As for DFNR, the enrichment ratio was no more than 0.25.

With NDYH, the enrichment ratio was no more than 0.25.

GESR: the enrichment ratio is no more than 0.25.

With PIHP, the enrichment ratio is no more than 0.25.

On to NCDW, for which the enrichment ratio is no more than 0.25.

Consider MPVI, for which the enrichment ratio is no more than 0.25.

Turning to LMDW, the enrichment ratio was no more than 0.25.

As to STMT, the enrichment ratio stood at 16.6.

As for NQSV, the enrichment ratio turned out to be 0.26.

Regarding THWV, the enrichment ratio is no more than 0.25.

On to FLDL, for which the enrichment ratio is no more than 0.25.

As to FCPV, the enrichment ratio is no more than 0.25.

ESKL: the enrichment ratio was no more than 0.25.

Take VMCL: the enrichment ratio is no more than 0.25.

On to DMWC, for which the enrichment ratio is no more than 0.25.

As to VTYV, the enrichment ratio was no more than 0.25.

For GFHH, the enrichment ratio is no more than 0.25.

Take DVLI: the enrichment ratio is no more than 0.25.

For the variant QDSS, the enrichment ratio is no more than 0.25.

Regarding AWVV, the enrichment ratio is no more than 0.25.

PCLL: the enrichment ratio was no more than 0.25.

As for LHRL, the enrichment ratio is no more than 0.25.

On to WTTN, for which the enrichment ratio is no more than 0.25.

For the variant LIIF, the enrichment ratio is no more than 0.25.

As for MQSC, the enrichment ratio was no more than 0.25.

DMLD: the enrichment ratio was no more than 0.25.

Consider HEHS, for which the enrichment ratio was no more than 0.25.

In the case of KIAF, the enrichment ratio is no more than 0.25.

On to LRGT, for which the enrichment ratio is no more than 0.25.

Turning to LTYA, the enrichment ratio was no more than 0.25.

Turning to IHRE, the enrichment ratio was no more than 0.25.

As for THLF, the enrichment ratio was 3.38.

KDNW: the enrichment ratio is no more than 0.25.

For LKDC, the enrichment ratio was no more than 0.25.

QIVS: the enrichment ratio was no more than 0.25.

On to AKMR, for which the enrichment ratio was no more than 0.25.

As to GWDH, the enrichment ratio was no more than 0.25.

In the case of RICM, the enrichment ratio was no more than 0.25.

For YGAS, the enrichment ratio was no more than 0.25.

On to HTPN, for which the enrichment ratio is no more than 0.25.

Take MCSC: the enrichment ratio is no more than 0.25.

Consider PTAH, for which the enrichment ratio is no more than 0.25.

For the variant RALM, the enrichment ratio is no more than 0.25.

As to IDPV, the enrichment ratio was no more than 0.25.

As for KLEQ, the enrichment ratio was no more than 0.25.

Consider PLDK, for which the enrichment ratio is no more than 0.25.

In the case of SISP, the enrichment ratio is no more than 0.25.

Take KQTN: the enrichment ratio was no more than 0.25.

As for LIMG, the enrichment ratio was no more than 0.25.

In the case of APDC, the enrichment ratio is no more than 0.25.

As to PQTP, the enrichment ratio is no more than 0.25.

Consider SRNA, for which the enrichment ratio was no more than 0.25.

For STGR, the enrichment ratio is no more than 0.25.

For AYAL, the enrichment ratio was no more than 0.25.

Consider VHHL, for which the enrichment ratio is no more than 0.25.

In the case of FVMI, the enrichment ratio was determined as 1.82.

With ICDI, the enrichment ratio is no more than 0.25.

Turning to MTPK, the enrichment ratio is no more than 0.25.

Take SKGM: the enrichment ratio is no more than 0.25.

For PATD, the enrichment ratio is no more than 0.25.

Regarding FCKF, the enrichment ratio is no more than 0.25.

Consider WHEF, for which the enrichment ratio was no more than 0.25.

Take PHFW: the enrichment ratio is no more than 0.25.

As for TSVM, the enrichment ratio was 3.12.

Turning to VYEK, the enrichment ratio is no more than 0.25.

As for SINV, the enrichment ratio was no more than 0.25.

As for QMPP, the enrichment ratio was no more than 0.25.

With KACK, the enrichment ratio is no more than 0.25.

EIWR: the enrichment ratio was no more than 0.25.

For the variant DQND, the enrichment ratio is no more than 0.25.

On to VGFC, for which the enrichment ratio was no more than 0.25.

As for ISFS, the enrichment ratio was no more than 0.25.

With LIMA, the enrichment ratio was no more than 0.25.

On to WSCP, for which the enrichment ratio is no more than 0.25.

On to FMQS, for which the enrichment ratio was no more than 0.25.

On to YEIF, for which the enrichment ratio is no more than 0.25.

In the case of HNRS, the enrichment ratio stood at 0.686.

Take GIPY: the enrichment ratio was no more than 0.25.

As to PGQI, the enrichment ratio was no more than 0.25.

IGAK: the enrichment ratio is no more than 0.25.

Consider KEMF, for which the enrichment ratio is no more than 0.25.

As for FKKR, the enrichment ratio is no more than 0.25.

As for REVH, the enrichment ratio was no more than 0.25.

On to RSPN, for which the enrichment ratio is no more than 0.25.

Turning to YLLL, the enrichment ratio came to 0.307.

On to YPTM, for which the enrichment ratio is no more than 0.25.

For IQDC, the enrichment ratio was no more than 0.25.

Regarding TISR, the enrichment ratio was 6.92.

As for GHIS, the enrichment ratio is no more than 0.25.

On to SMIA, for which the enrichment ratio is no more than 0.25.

As for FGPH, the enrichment ratio is no more than 0.25.

MKHL: the enrichment ratio was no more than 0.25.

Take SYTG: the enrichment ratio was 0.487.

Turning to ARIH, the enrichment ratio was no more than 0.25.

Turning to HHTR, the enrichment ratio was no more than 0.25.

As for FGQH, the enrichment ratio is no more than 0.25.

With AQQL, the enrichment ratio is no more than 0.25.

For the variant LDIA, the enrichment ratio is no more than 0.25.

GWTQ: the enrichment ratio was no more than 0.25.

On to GMSA, for which the enrichment ratio is no more than 0.25.

As to MKSR, the enrichment ratio was no more than 0.25.

Consider FWMK, for which the enrichment ratio is no more than 0.25.

For YIWD, the enrichment ratio was no more than 0.25.

On to PFCI, for which the enrichment ratio is no more than 0.25.

As to PYEN, the enrichment ratio is no more than 0.25.

As to TDWA, the enrichment ratio was no more than 0.25.

In the case of DKDN, the enrichment ratio is no more than 0.25.

Regarding MRID, the enrichment ratio was no more than 0.25.

Take VHDI: the enrichment ratio is no more than 0.25.

Turning to YGLE, the enrichment ratio was 0.384.

Take KNFS: the enrichment ratio was no more than 0.25.

For EGKV, the enrichment ratio is no more than 0.25.

Consider SFWC, for which the enrichment ratio is no more than 0.25.

Turning to SYYQ, the enrichment ratio was no more than 0.25.

As for LCQP, the enrichment ratio was no more than 0.25.

For the variant HKVI, the enrichment ratio is no more than 0.25.

As to QSSS, the enrichment ratio amounted to 8.71.

Take DQGS: the enrichment ratio was no more than 0.25.

Take NKYR: the enrichment ratio was no more than 0.25.

Turning to TDYI, the enrichment ratio was no more than 0.25.

For MNFM, the enrichment ratio worked out at 6.56.

RHYQ: the enrichment ratio was no more than 0.25.

Turning to IDSR, the enrichment ratio was no more than 0.25.

Turning to MTER, the enrichment ratio is no more than 0.25.

Take RLSW: the enrichment ratio is no more than 0.25.

As to KFTM, the enrichment ratio was no more than 0.25.

With QDSL, the enrichment ratio is no more than 0.25.

With GCAK, the enrichment ratio was no more than 0.25.

As for YWDC, the enrichment ratio was no more than 0.25.

Turning to EWAL, the enrichment ratio was no more than 0.25.

Consider THIQ, for which the enrichment ratio was no more than 0.25.

In the case of VGFK, the enrichment ratio was no more than 0.25.

Turning to KLQI, the enrichment ratio is no more than 0.25.

In the case of MYLH, the enrichment ratio is no more than 0.25.

For KQAL, the enrichment ratio was no more than 0.25.

For the variant YFHM, the enrichment ratio was no more than 0.25.

In the case of WTWY, the enrichment ratio is no more than 0.25.

For ADFM, the enrichment ratio is no more than 0.25.

For RKTG, the enrichment ratio was no more than 0.25.

For the variant KESN, the enrichment ratio was no more than 0.25.

Consider IKYD, for which the enrichment ratio is no more than 0.25.

Turning to SERC, the enrichment ratio is no more than 0.25.

With WDWT, the enrichment ratio was no more than 0.25.

As to YRHQ, the enrichment ratio is no more than 0.25.

On to ERCG, for which the enrichment ratio is no more than 0.25.

With DVKR, the enrichment ratio was no more than 0.25.

Regarding RFKR, the enrichment ratio is no more than 0.25.

In the case of ALLP, the enrichment ratio is no more than 0.25.

Regarding TTHK, the enrichment ratio is no more than 0.25.

Take RTST: the enrichment ratio was no more than 0.25.

As for HWCH, the enrichment ratio is no more than 0.25.

For the variant HPNR, the enrichment ratio is no more than 0.25.

For LWGF, the enrichment ratio was no more than 0.25.

Turning to YWME, the enrichment ratio is no more than 0.25.

Consider HAHF, for which the enrichment ratio was no more than 0.25.

As to DGNN, the enrichment ratio was no more than 0.25.

In the case of SPEY, the enrichment ratio is no more than 0.25.
